{"source": "PubChem BioAssay AID1508623", "about": "(National Center for Advancing Translational Sciences (NCATS), 2021)", "note": "In all, about 48,000 compounds went through this assay and about 450 (0.94%) were called active. Inconclusive means that the source gave no clear call. Such entries were picked first, then a sample of the others. The call rests on the fitted dose curve; in most records, active means well fitted inhibition curve with a large enough effect; inconclusive means small, poorly fitted or top-dose-only effect; inactive means no such curve, though single readings can be large or run the other way. Where the call is inconclusive, the potency comes from a doubtful curve fit. Potency means the concentration at half of the fitted maximal effect; tags describe the fitted curve by direction and shape."}
{"assay": "Primary qHTS for Identification of Small Molecule Inhibitors of Huntingtin Promoter Activity; further: nearly all actives have a fitted effect of over 50% in size", "settings": "HEK293 HTT promoter firefly luciferase reporter (activity 0% = vehicle and -100% = no light), 24 h; activity change, negative = inhibition: at 57.5 µM (top of the series)", "procedure,_shortened": "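Quantitative HTS used concentration series of up to 57.5 uM final on HEK293 luciferase reporter cells, 24 h at 37 degrees C. Readout was Dual-Glo firefly luminescence.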"}
{"smiles": "O=C(NCc1ccccc1Cl)c1ccc2oc(=O)n(Cc3ccccc3)c2c1", "Potency": "inconclusive: 25.1 µM [inhibitor, single point]"}
{"smiles": "Cc1cccc(-n2nc(C)c(C(=O)Nc3cc(C)ccc3C)c2-n2cccc2)c1", "Potency": "inconclusive: 14.1 µM [inhibitor, partial curve, poor fit]"}
{"smiles": "COc1ccc(OC)c(NC(=O)Cn2c(=O)cc(-c3ccccc3)c3c(C)nn(C)c32)c1", "Potency": "inconclusive: 31.6 µM [inhibitor, single point]"}
{"smiles": "COc1cc(NC(=O)CCCOc2cc(=O)n(C)c3ccccc23)cc(OC)c1OC", "activity change, negative = inhibition": "inactive: -27.9% [at 11.5 µM]"}
{"smiles": "Cc1cccc(N2CCN(C(=O)CS(=O)(=O)Cc3nc(-c4ccccc4C)oc3C)CC2C)c1", "note": "(stereo unspecified)", "Potency": "inconclusive: 39.8 µM [inhibitor, partial curve, poor fit]"}
{"smiles": "CCOc1ccc(N(Cc2ccccc2)C(=O)c2nc(S(C)(=O)=O)ncc2Cl)cc1", "Potency": "inconclusive: 28.2 µM [inhibitor, partial curve, poor fit]"}
{"smiles": "O=S(=O)(NCc1nc2cccnc2n1Cc1ccccc1Cl)c1ccc(F)c(Cl)c1", "Potency": "inconclusive: 35.5 µM [inhibitor, single point]"}
{"smiles": "CC(=O)c1c(C)oc2c1cc(NS(=O)(=O)c1ccc(Cl)c(C)c1)c1ccccc12", "Potency": "inconclusive: 28.2 µM [inhibitor, partial curve, poor fit]"}
{"smiles": "CC(C)(O)CC[C@@H](O)[C@](C)(O)[C@H]1CC[C@@]2(O)C3=CC(=O)[C@@H]4C[C@@H](O)[C@@H](O)C[C@]4(C)[C@@H]3CC[C@]12C", "activity change, negative = inhibition": "inactive: -14.6%"}
{"smiles": "Cc1nc(-c2ccc(C)c(N3CCN(C(=O)Nc4cccc(Cl)c4C)CC3)c2)no1", "Potency": "inconclusive: 39.8 µM [inhibitor, partial curve, poor fit]"}
{"smiles": "CCOC(=O)C1CCCN(Cc2cn3c(-c4cccc(Br)c4)nnc3s2)C1", "note": "(stereo unspecified)", "Potency": "inconclusive: 1.12 µM [inhibitor, partial curve, poor fit]"}
{"smiles": "Cc1ccc(-n2c(Cc3ccccc3)nnc2SCc2nc(-c3cccs3)no2)cc1C", "Potency": "inconclusive: 35.5 µM [inhibitor, single point]"}
{"smiles": "O=c1c(O)c(-c2cc(O)c(O)c(O)c2)oc2cc(O)cc(O)c12", "activity change, negative = inhibition": "inactive: 1.89%"}
{"smiles": "CCC(C(=O)Nc1cc(F)ccc1F)n1nc(C)c2c(C)n(-c3ccc(C)cc3)nc2c1=O", "note": "(stereo unspecified)", "Potency": "inconclusive: 39.8 µM [inhibitor, single point]"}
{"smiles": "Cc1cc(C)c2c(=O)cc(CSc3n[nH]c(C)n3)[nH]c2c1", "activity change, negative = inhibition": "inactive: 5.68%"}
{"smiles": "O=C(CSCc1ccc(F)cc1)N1CCc2c([nH]c3ccccc23)C1c1ccc(Cl)cc1", "note": "(stereo unspecified)", "Potency": "inconclusive: 28.2 µM [inhibitor, single point]"}
